Values marked as one replicate rest on one cluster of the flow cell; about a third of the high ones do not repeat.
These sequences were tested on ATP (assay: switch fluorescence ratio, 500 uM ATP over buffer (Cy3 cluster intensity, sum of 5 cycles each) (fold (ratio)); higher = stronger signal-on switching upon ATP binding; sequences stand for … in TCGTCGGCAGCGTCAGATGTGTATAAGAGACAGTTTTTTTTTTTTTTTTTTTTTTTTT…TC). Conditions: aptamer strand: ATP DNA aptamer (quencher-CACCTGGGGGAGTATTGCGGAGGAAGG + anchor), 100 nM annealed; ATP concentration: 500 uM; one replicate.
How it was run: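 Imaging in selection buffer was followed by imaging after 15 min with 500 uM ATP at 22 °C, for Cy3-labelled switching-strand clusters annealed to 100 nM quencher-labelled ATP aptamer on a modified Illumina MiSeq flow-cell. Five of these buffer/ATP cycles ran, separated by NaOH stripping and re-annealing. The fluorescence ratio per cluster is summed target-cycle over summed buffer-cycle Cy3 intensity, averaged per switch-domain sequence; clusters outside 100-1000 RFU were removed.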
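Also: ATP exposure 15 min at 22 °C before imaging.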

| Sequence | switch fluorescence ratio |
| --- | --- |
| TTGTGTTCC | 1.07 |
| TTGTTAAGA | 0.991 |
| TTGTTAGGTA | 0.986 |
| TTGTTCCCCT | 1.04 |
| TTGTTGCGCT | 1.04 |
| TTGTTTGTTA | 0.972 |
| TTGTTTTTCT | 0.997 |
| TTTAAAGGA | 0.974 |
| TTTAAAGTCG | 0.99 |
| TTTAACGTAG | 1.05 |
| TTTAAGTAT | 1 |
| TTTAAGTGC | 1.07 |
| TTTAAGTTA | 1.01 |
| TTTAAGTTTA | 0.998 |
| TTTAATCTGC | 0.953 |
| TTTAATTCAG | 0.985 |
| TTTACACCGT | 1.02 |
| TTTACAGTGA | 1.01 |
| TTTACATACT | 1.5 |
| TTTACCAAC | 1.14 |
| TTTACCCAT | 1.05 |
| TTTACCCTTA | 1.02 |
| TTTACCGAAG | 1.09 |
| TTTACGACCA | 1.19 |

| Sequence | switch fluorescence ratio |
| --- | --- |
| TTTACGCGCG | 1.01 |
| TTTACGCTAA | 1.26 |
| TTTACGGCCG | 1.03 |
| TTTACTAAAT | 1 |
| TTTACTGGA | 1.01 |
| TTTAGAGGAG | 1.04 |
| TTTAGAGGCG | 1.02 |
| TTTAGGGCGA | 1.02 |
| TTTAGGGCTA | 1.02 |
| TTTAGGGGTG | 1.02 |
| TTTAGGTCGT | 1 |
| TTTAGTGATA | 1.01 |
| TTTAGTGATC | 0.99 |
| TTTAGTGTCA | 0.994 |
| TTTAGTTACC | 1.01 |
| TTTAGTTAGT | 0.949 |
| TTTAGTTATG | 0.993 |
| TTTAGTTTTA | 0.978 |
| TTTATAAACG | 0.966 |
| TTTATCACGC | 1.06 |
| TTTATCCGAT | 0.983 |
| TTTATCGCAC | 1.23 |
| TTTATCTACG | 1.14 |
| TTTATGCGCG | 0.96 |

| Sequence | switch fluorescence ratio |
| --- | --- |
| TTTATGCTGA | 0.966 |
| TTTATGGCAC | 1.07 |
| TTTATGGCGC | 0.994 |
| TTTATGTGCT | 1.01 |
| TTTATGTTCT | 0.999 |
| TTTATTAGGT | 1.02 |
| TTTATTCTCG | 1.05 |
| TTTCACAAGA | 0.972 |
| TTTCACTTTA | 0.985 |
| TTTCCCTG | 1.04 |
| TTTCCGCTTG | 1.25 |
| TTTCCGCTTT | 2.23 |
| TTTCCGGTAA | 5.45 |
| TTTCCGTCCC | 1.13 |
| TTTCCGTGTC | 1.04 |
| TTTCCGTTAA | 1.11 |
| TTTCCTAGA | 0.994 |
| TTTCCTATGA | 1.04 |
| TTTCCTGGGA | 0.993 |
| TTTCGAAGCA | 1.64 |
| TTTCGACCCG | 1.12 |
| TTTCGAGACT | 1.02 |
| TTTCGAGTCC | 1.07 |
| TTTCGATTGA | 0.977 |

| Sequence | switch fluorescence ratio |
| --- | --- |
| TTTCGCAGTT | 2.77 |
| TTTCGCCG | 0.884 |
| TTTCGCCTCC | 1.23 |
| TTTCGCGAGC | 1.14 |
| TTTCGGCTC | 1 |
| TTTCGGTGGG | 1.05 |
| TTTCTAGCAT | 1.07 |
| TTTCTCTGCT | 1.03 |
| TTTCTCTGGG | 0.988 |
| TTTCTTATCG | 1.02 |
| TTTCTTCATC | 1.04 |
| TTTCTTTCGC | 1.05 |
| TTTGAAACGG | 0.996 |
| TTTGAAATG | 0.995 |
| TTTGAACGGA | 1.02 |
| TTTGAACTGG | 1.05 |
| TTTGAATA | 1.04 |
| TTTGAGAATG | 0.976 |
| TTTGAGCAA | 1.62 |
| TTTGAGGATC | 0.982 |
| TTTGAGTCGA | 0.953 |
| TTTGATTACC | 0.986 |
| TTTGCCGGAT | 0.963 |
| TTTGCCTGGG | 0.986 |

| Sequence | switch fluorescence ratio |
| --- | --- |
| TTTGCGAACC | 1.12 |
| TTTGCGACGG | 1.06 |
| TTTGCGACTC | 1.22 |
| TTTGCTGGA | 0.999 |
| TTTGCTGGCT | 1.01 |
| TTTGGAGT | 1.02 |
| TTTGGATCAC | 1.01 |
| TTTGGCAATA | 1.25 |
| TTTGGCAGTT | 1.04 |
| TTTGGCGGCT | 1.01 |
| TTTGGGATAT | 1.02 |
| TTTGGTGTAT | 1.03 |
| TTTGGTTTAA | 0.957 |
| TTTGTAATGT | 1 |
| TTTGTAGCA | 1.15 |
| TTTGTATAGA | 0.989 |
| TTTGTCCC | 1.02 |
| TTTGTCCCGC | 1.06 |
| TTTGTCCCGG | 1 |
| TTTGTCTTTG | 1.04 |
| TTTGTGAAC | 1.04 |
| TTTGTGACAA | 1.02 |
| TTTGTGCTCA | 1.03 |
| TTTGTGGAGA | 1.05 |

| Sequence | switch fluorescence ratio |
| --- | --- |
| TTTGTTAATC | 0.969 |
| TTTGTTCCGG | 0.958 |
| TTTGTTCGT | 1.02 |
| TTTTAAACCA | 1.01 |
| TTTTAACGTC | 1.02 |
| TTTTAAGCCT | 1.05 |
| TTTTACACCC | 1.17 |
| TTTTACGTAA | 1.44 |
| TTTTAGAGCA | 1.01 |
| TTTTAGGTCT | 1.04 |
| TTTTAGTAA | 1.05 |
| TTTTAGTAGA | 1.02 |
| TTTTATAAT | 0.952 |
| TTTTATAGC | 0.971 |
| TTTTATATCG | 1.07 |
| TTTTATCG | 1.04 |
| TTTTATGCCA | 1.02 |
| TTTTATGTCC | 1.09 |
| TTTTCAGCGA | 1.11 |
| TTTTCCCCAT | 1.04 |
| TTTTCCGACT | 1.08 |
| TTTTCCGCAT | 4.61 |
| TTTTCCGTCA | 1.11 |
| TTTTCCGTCT | 1.07 |

| Sequence | switch fluorescence ratio |
| --- | --- |
| TTTTCTAGAT | 0.983 |
| TTTTCTCATT | 0.984 |
| TTTTCTCGA | 1.01 |
| TTTTCTGGGT | 0.991 |
| TTTTCTTATT | 0.993 |
| TTTTGAATA | 1.05 |
| TTTTGACGTA | 1.04 |
| TTTTGAGT | 0.937 |
| TTTTGCAATC | 2.65 |
| TTTTGCAGCG | 0.973 |
| TTTTGCCGC | 0.978 |
| TTTTGCCGCG | 0.989 |
| TTTTGCTCCG | 2 |
| TTTTGGAGT | 1.01 |
| TTTTGGCACC | 0.989 |
| TTTTGTACA | 1.01 |
| TTTTGTGTGA | 0.971 |
| TTTTGTTCCA | 1.04 |
| TTTTTAAAT | 1.02 |
| TTTTTATTCA | 1.03 |
| TTTTTCAGTC | 0.95 |
| TTTTTGATCA | 1.01 |
| TTTTTGCTCT | 0.966 |
| TTTTTTTCA | 0.983 |
